Reference: PubChem BioAssay AID1345083 (National Center for Advancing Translational Sciences (NCATS), 2018)
About 6,200 (6.6%) of roughly 94,000 compounds were called active. Inconclusive results, whose numbers are uncertain, are shown with a selection of clear calls. Calls follow the shape of the dose curve; as a rule, active = well fitted inhibition curve with a large enough effect; inconclusive = small, poorly fitted or top-dose-only effect; inactive = flat fitted curve, though single readings scatter. A potency beside an inconclusive call is a rough fit, not a confirmed value.
% is scaled to controls: 0 for no effect and ±100 for the full control effect; potency is read from the fitted curve at half-maximal effect; tags tell the direction and shape of the fitted curve.

Experiment: Cytotoxic Profiling in HEK 293 Cell Line of Diverse Libraries Using Quantitative High-Throughput Screening; also: nearly all actives have a fitted effect of over 60% in size
Settings: HEK 293 viability, ATP luminescence (CellTiter-Glo), 48-72 h; activity change, negative = cytotoxicity: at 115 µM (top of the series) unless noted; series mostly up to 115 µM
Outline: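 qHTS cytotoxicity; HEK 293, 250 cells/well; compound pinned; 48 or 72 hr, 37 degree Celsius, 5% CO2, 95% humidity; CellTiter-Glo, 10 min RT; luminescence (ATP).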
For `Cc1ccc(C(=O)NCCc2ncc(C)n2C2CCCC2)cn1`, the “outcome” value was “inactive”. In the case of `COc1ccc(-c2ccc(C(=O)NCc3ccc(F)cc3)c(Cl)c2)nn1`, the Potency is reported as inconclusive: 79.4 µM [inhibitor, single point]. In the case of `CCOC(=O)[C@@H]1CN(C(=O)c2cc(C)oc2C)[C@H]2c3ccc(OC)cc3O[C@@H]12`, the Potency is reported as inconclusive: 79.4 µM [inhibitor, partial curve, poor fit]. In the case of `CN1CC2(CCN(Cc3cn[nH]c3-c3ccc(F)cc3)CC2)CC1C(=O)N1CCOCC1` (configuration not stated), the “outcome” value is reported as “inactive”. In the case of `COc1ccc(CN2CCOc3nc(-c4cc5ccccc5o4)ncc3C2=O)cc1`, the Potency is reported as inconclusive: 44.7 µM [inhibitor, full curve]. With `Fc1ccc(-c2cnc3n2C[C@H](CNCC2CCCCC2)OC3)cc1` the Potency was inconclusive: 112 µM [inhibitor, partial curve]. For `O=C(Nc1ccccc1Cl)C1CCCN1Cc1ccc(-c2cncnc2)cc1` (configuration not stated), the Potency was inconclusive: 50.1 µM [inhibitor, partial curve, poor fit]. In the case of `CCOCCOC1CCN(C(=O)c2ccccc2)CC1`, the “activity change, negative = cytotoxicity” value is reported as inactive: 0.877%. For `COc1ccc(-c2noc([C@@H]3CCCN3C(=O)c3ccc(F)c(Cl)c3)n2)cc1`, the Potency was inconclusive: 79.4 µM [inhibitor, partial curve, poor fit]. For `O=[S+]([O-])(c1cccc(C(F)(F)F)c1)N1CCN(c2ccnc3ccnn23)CC1`, the Potency was inconclusive: 89.1 µM [inhibitor, partial curve, poor fit]. For `COc1cc(-c2ccnc(-c3nnc(C)n3Cc3ccccc3)c2)ccn1`, the Potency was inconclusive: 112 µM [inhibitor, partial curve]. In the case of `CCn1c2c(c(=O)n1Cc1ccccc1)CCN(Cc1nccs1)C2`, the “activity change, negative = cytotoxicity” value is reported as inactive: -1.36% [at 172 µM]. With `Cc1ccc(C(=O)N2CCC3(CC2)NC(=O)N(Cc2ccc(F)cc2)C3=O)cc1` the Potency was inconclusive: 44.7 µM [inhibitor, partial curve, poor fit]. With `CN(CC1CCOC1)C(=O)c1ccccc1Br` (configuration not stated) the “activity change, negative = cytotoxicity” value was inactive: -14.7%. In the case of `COc1cccc(-c2ccc(C(=O)N3CCC(C(=O)NCc4cccs4)CC3)cc2)c1`, the Potency is reported as inconclusive: 56.2 µM [inhibitor, partial curve, poor fit]. For `COCc1ncc2c(n1)CCCN(CC(=O)Nc1ccccc1)C2=O`, the “activity change, negative = cytotoxicity” value was inactive: 0.413%. In the case of `O=C(Cc1ccccc1Cl)NC1CCN(c2cc(-c3cccs3)[nH]n2)C1` (configuration not stated), the Potency is reported as inconclusive: 22.4 µM [inhibitor, full curve]. With `O=C(c1cccs1)N1CCCC(n2cc(-c3nc(C4CC4)no3)nn2)C1` (configuration not stated) the “activity change, negative = cytotoxicity” value was inactive: -15.8%. For `O=C(NC1CCN(c2ccc3nnc(C4CC4)n3n2)C1)c1ccccc1Cl` (configuration not stated), the Potency was inconclusive: 63.1 µM [inhibitor, partial curve, poor fit]. In the case of `O=C(NC1CCCCC1)c1cc2n(n1)CC(c1ccc3c(c1)OCO3)OC2` (configuration not stated), the Potency is reported as inconclusive: 89.1 µM [inhibitor, single point]. With `O=C(CC1CCCC1)N1CCC(OC2CCN(Cc3ccccc3)CC2)CC1` the Potency was inconclusive: 79.4 µM [inhibitor, single point]. With `CN(C)S(=O)(=O)N1CCCC1Cc1noc(-c2ccccc2)n1` (configuration not stated) the Potency was inconclusive: 89.1 µM [inhibitor, single point]. In the case of `NC(=O)[C@@H]1C[C@H](Oc2cccnc2)CN1S(=O)(=O)c1cccc(F)c1`, the “activity change, negative = cytotoxicity” value is reported as inactive: -2.41%. In the case of `CNC(=O)c1cc(C2CC2)nc2onc(C3CCN(C(=O)c4ccccc4Cl)CC3)c12`, the Potency is reported as inconclusive: 89.1 µM [inhibitor, single point]. For `Cc1cnc(C(=O)N[C@@H]2CCC[C@@H]2C(=O)N2CCN(c3cccc(Cl)c3)CC2)cn1`, the Potency was inconclusive: 89.1 µM [inhibitor, single point]. In the case of `CCOc1c(OC)cccc1-c1nc2ccc(-c3ccc(OC)c(OC)c3OC)cc2o1`, the Potency is reported as inconclusive: 28.2 µM [inhibitor, full curve]. In the case of `COc1ccc(-n2c(=O)c(C(=O)NCc3cccc(OC)c3)nc3cccnc32)cc1`, the Potency is reported as inconclusive: 79.4 µM [inhibitor, partial curve, poor fit]. In the case of `O=C(NCc1ccccc1)c1cnc2n1CCN(Cc1ccccc1F)CC2`, the Potency is reported as active: 28.2 µM. For `COc1cccc(CN2C(=O)C3(CCOCC3)CC2c2nnnn2C(C)(C)C)c1` (configuration not stated), the “activity change, negative = cytotoxicity” value was inactive: -5.76%. With `CNC(=O)CCn1ncc2cc(OCc3ccccc3-c3cc(F)ccc3OC)ccc21` the Potency was active: 79.4 µM. In the case of `CC(C)CNC(=O)N1CCCCCCNC(=O)[C@@H]2C[C@@H](c3nc(-c4cccnc4)no3)C[C@@H]21`, the “activity change, negative = cytotoxicity” value is reported as inactive: -2.61%. For `CCCNC(=O)N1C[C@@H](Oc2cccnc2)C[C@@H]1C(=O)NC`, the “outcome” value was “inactive”. For `O=C(CCC1CCCC1)N1CC(N(Cc2ccccn2)C(=O)Nc2ccccc2)C1`, the Potency was inconclusive: 56.2 µM [inhibitor, partial curve, poor fit]. With `CCc1nnc([C@@H]2CC(F)(F)CN2C(=O)CCn2cc(C)cn2)o1` the “activity change, negative = cytotoxicity” value was inactive: 3.08%. With `CCC1(N2CCN(S(=O)(=O)c3ccc(Cl)s3)CC2)CCN(S(C)(=O)=O)C1` (configuration not stated) the Potency was inconclusive: 50.1 µM [inhibitor, partial curve, poor fit]. For `COc1ccc(-n2nc(C)c([C@@H]3C=C[C@@H](NC(=S)NCC(C)C)C3)c2C)cc1`, the Potency was active: 28.2 µM. In the case of `C=CCOC(=O)C1=CN(Cc2ccccc2)S(=O)(=O)N=C1C`, the Potency is reported as inconclusive: 44.7 µM [inhibitor, partial curve, poor fit]. In the case of `CCc1cccc2c(C(CC(=O)NCc3ccco3)c3ccc(OC)c(OC)c3)c[nH]c12` (configuration not stated), the Potency is reported as inconclusive: 31.6 µM [inhibitor, partial curve, poor fit]. For `COc1ncccc1-c1cc(C(=O)N2CCCC(OC)C2)c2c(c1)ncn2C` (configuration not stated), the “activity change, negative = cytotoxicity” value was inactive: -20% [at 172 µM]. In the case of `COc1ccc(-c2cc(N3CCCN(C(=O)Cc4ccc(C)cc4)CC3)n[nH]2)cc1`, the Potency is reported as inconclusive: 50.1 µM [inhibitor, partial curve, poor fit]. With `O=C(c1ccccc1)N1CCNc2cnc(Nc3cccc(F)c3)nc2C1` the Potency was inconclusive: 44.7 µM [inhibitor, partial curve, poor fit]. With `COc1cc(C)c(CN2CCC3(CC2)[C@H](O)C[C@@H]3OCCN)cc1C` the Potency was inconclusive: 35.5 µM [inhibitor, partial curve].
